Measured values: the supplement of paper PMC10126150
Sequences with one replicate were seen in a single cluster, so their values are uncertain.

What follows are sequences tested on ATP (assay: switch fluorescence ratio, 500 uM ATP over buffer (Cy3 cluster intensity, sum of 5 cycles each) (fold (ratio)); higher = stronger signal-on switching upon ATP binding; sequences stand for … in TCGTCGGCAGCGTCAGATGTGTATAAGAGACAGTTTTTTTTTTTTTTTTTTTTTTTTT…TC). Settings: aptamer strand: ATP DNA aptamer (quencher-CACCTGGGGGAGTATTGCGGAGGAAGG + anchor), 100 nM annealed; ATP concentration: 500 uM; one replicate.
Summary of the method: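 Per cluster, summed Cy3 intensity from the target cycles was divided by that from the buffer cycles to give the fluorescence ratio, then averaged per switch-domain sequence. Clusters outside 100-1000 RFU were excluded. The Cy3-labelled switching-strand clusters, on a modified Illumina MiSeq flow-cell, were annealed to 100 nM quencher-labelled ATP aptamer and imaged in selection buffer, then after 15 min with 500 uM ATP at 22 °C, for five cycles with NaOH stripping and re-annealing between them.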
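Also: ATP exposure 15 min at 22 °C before imaging.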

| Sequence | switch fluorescence ratio |
| --- | --- |
| ATATGACGAG | 1.03 |
| ATATGACTAA | 0.993 |
| ATATGAGAGA | 1.03 |
| ATATGAGTGT | 0.943 |
| ATATGATGCG | 0.996 |
| ATATGCGGTT | 0.931 |
| ATATGCTCGG | 1.01 |
| ATATGGAAAA | 1.02 |
| ATATGGTGGC | 1.01 |
| ATATGTAATA | 0.967 |
| ATATTATCCG | 0.99 |
| ATATTATGCG | 0.935 |
| ATATTATTCG | 0.972 |
| ATATTCAGTG | 0.972 |
| ATATTCCAAA | 0.987 |
| ATATTGCGG | 1.01 |
| ATATTGTGCC | 0.969 |
| ATATTTCATC | 0.983 |
| ATATTTCTAC | 1.04 |
| ATATTTTTTC | 1.01 |
| ATCAACACAA | 0.978 |
| ATCAACTTCG | 0.994 |
| ATCAACTTGC | 1.03 |
| ATCAAGATCG | 0.977 |
| ATCAAGCGAC | 1.1 |
| ATCAATGATG | 1.01 |

| Sequence | switch fluorescence ratio |
| --- | --- |
| ATCAATTATT | 1.02 |
| ATCACAGTGC | 1.14 |
| ATCACGGGCG | 0.976 |
| ATCACGTCTG | 1.03 |
| ATCACTGCC | 1.18 |
| ATCACTTTGC | 1.07 |
| ATCAGACAGC | 1 |
| ATCAGAGGGA | 1.04 |
| ATCAGATCTG | 1.01 |
| ATCAGCGTAT | 1.01 |
| ATCAGGCGA | 1.04 |
| ATCAGGGTTA | 0.965 |
| ATCAGGTGTT | 2.64 |
| ATCAGTTAT | 0.95 |
| ATCAGTTCGG | 1.01 |
| ATCATAATAT | 0.964 |
| ATCATAATGA | 1.01 |
| ATCATACCCG | 1.02 |
| ATCATACTGC | 1.06 |
| ATCATCAACT | 0.971 |
| ATCATCTCGT | 1.02 |
| ATCATGTTAC | 1.06 |
| ATCATTCCGG | 1.06 |
| ATCATTCGCT | 1.06 |
| ATCATTGCGC | 0.979 |
| ATCCAAATGA | 1.02 |

| Sequence | switch fluorescence ratio |
| --- | --- |
| ATCCACTCCC | 1.6 |
| ATCCAGTGCT | 1.05 |
| ATCCCAGGCC | 1.01 |
| ATCCCCGGGT | 1.38 |
| ATCCCGATCA | 0.993 |
| ATCCCGGCGT | 1 |
| ATCCCGGGAA | 0.96 |
| ATCCGATTCC | 1.12 |
| ATCCGGCTTC | 0.972 |
| ATCCGTATTG | 1.01 |
| ATCCTATACT | 1.07 |
| ATCCTATGGC | 1.03 |
| ATCCTCGTC | 1.09 |
| ATCCTGTGGA | 1.05 |
| ATCCTTCACT | 1.12 |
| ATCCTTCCCG | 2.03 |
| ATCCTTGGGG | 1 |
| ATCGACGGCG | 1.05 |
| ATCGATTATT | 1.01 |
| ATCGCACCAT | 1.1 |
| ATCGCAGATG | 0.996 |
| ATCGCGCAGT | 1.09 |
| ATCGCGGGCG | 1.06 |
| ATCGCTAATT | 1.02 |
| ATCGCTACGC | 1.06 |
| ATCGCTAGGC | 1.24 |

| Sequence | switch fluorescence ratio |
| --- | --- |
| ATCGGACAGC | 1.06 |
| ATCGGAGCGA | 1.84 |
| ATCGGATAAC | 0.998 |
| ATCGGCACAC | 2 |
| ATCGGCAGCG | 1.04 |
| ATCGGCTTAA | 1 |
| ATCGGGCG | 0.989 |
| ATCGGGGAAG | 0.962 |
| ATCGGGTCCG | 0.94 |
| ATCGGGTCTC | 0.988 |
| ATCGGGTCTG | 0.972 |
| ATCGGTGGTC | 1.01 |
| ATCGTATGAT | 0.977 |
| ATCGTATGGG | 0.957 |
| ATCGTCCGCA | 4.82 |
| ATCGTGGCCT | 0.96 |
| ATCGTGTAGT | 0.994 |
| ATCGTTACG | 0.945 |
| ATCGTTCAGA | 1.02 |
| ATCGTTTTAG | 0.996 |
| ATCTAAGGCT | 1 |
| ATCTAATTCT | 1.05 |
| ATCTAGCGTT | 0.987 |
| ATCTAGGCTA | 0.982 |
| ATCTAGTAAC | 1.01 |
| ATCTATACGT | 1.03 |

| Sequence | switch fluorescence ratio |
| --- | --- |
| ATCTATGCCG | 1.06 |
| ATCTATTTGC | 1 |
| ATCTATTTTA | 1.02 |
| ATCTCAAGTT | 0.995 |
| ATCTCACGTG | 0.991 |
| ATCTCGCGA | 1.19 |
| ATCTGAACGG | 1 |
| ATCTGACATA | 1.04 |
| ATCTGCCCGC | 1.08 |
| ATCTGCTCGC | 1.07 |
| ATCTGGTGGC | 0.995 |
| ATCTGTCACA | 1.01 |
| ATCTTAAGCT | 0.981 |
| ATCTTAGAAA | 0.895 |
| ATCTTGGTAG | 0.987 |
| ATCTTGGTAT | 0.988 |
| ATCTTTCTCC | 1.07 |
| ATGAAACTAG | 0.901 |
| ATGAAAGGAC | 1.04 |
| ATGAAAGGCA | 0.964 |
| ATGAACCGCG | 1.18 |
| ATGAACGTTG | 1.02 |
| ATGAATCATA | 0.984 |
| ATGAATTGAT | 1.02 |
| ATGACATTTA | 1.05 |
| ATGACCAGAT | 0.978 |

| Sequence | switch fluorescence ratio |
| --- | --- |
| ATGACCTGTT | 1.03 |
| ATGACCTTAC | 3.36 |
| ATGACGAATG | 1 |
| ATGACGACCT | 1.04 |
| ATGACGCGGC | 1.36 |
| ATGACTGCGG | 0.999 |
| ATGACTTCAG | 0.965 |
| ATGAGAATTG | 0.993 |
| ATGAGATCCT | 1.05 |
| ATGAGCGCCT | 1.04 |
| ATGAGGACGA | 1.18 |
| ATGAGGCAGA | 1.06 |
| ATGAGGTCAC | 0.998 |
| ATGAGGTGGA | 1.04 |
| ATGAGTCTCT | 1.04 |
| ATGATAACGA | 1.01 |
| ATGATAAGCG | 0.989 |
| ATGATAGGTT | 1.02 |
| ATGATCTGTA | 0.998 |
| ATGATTACTG | 1 |
| ATGATTAGTG | 0.989 |
| ATGATTTGAC | 1.02 |
| ATGCAAAAG | 1.06 |
